Laboratory results from the supplement of paper PMC9446081.
The whole screen tested about 39,000 compounds, of which about 220 (0.56%) showed activity. Some of the results follow.

test system: Escherichia coli K-12 BW25113; experiment: relative growth (OD600 normalised to plate interquartile mean) (fraction); higher = less growth inhibition, active = 0.2 or less; conditions: 50 µM; LB; incubation time: overnight (16-24 h)
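Further: static incubation at 37 °C against the wild-type strain, values averaged over two biological replicates.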

Row | Structure (SMILES) | relative growth
1 | O=C(O)CCCCN(CCc1ccccc1OCc1ccc(CCc2ccccc2)cc1)Cc1ccc(C(=O)O)cc1 | inactive: 1.04
2 | FC(F)(F)c1ccccc1/N=C1\CCCc2ccccc21 | inactive: 1.02
3 | COCC(=O)N[C@@H]1C[C@H](CO)[C@H](O)C1 | inactive: 0.974
4 | Cc1noc(C)c1S(=O)(=O)Nc1ccc2c(c1)C(=O)N([C@H](C)CO)C[C@H](C)[C@H](CN(C)S(=O)(=O)c1ccc(Cl)cc1)O2 | inactive: 1.03
5 | C[C@H](CO)N1C[C@H](C)[C@H](CN(C)C(=O)Nc2ccccc2)Oc2ccc(NC(=O)C3CC3)cc2CC1=O | inactive: 0.985
6 | CCCC1CCC(c2ccc(OC(=O)c3cccnc3)cc2)CC1 (configuration not stated) | inactive: 0.881
7 | C[C@@H]1CN([C@H](C)CO)C(=O)Cc2cc(NS(=O)(=O)c3ccc(Cl)cc3)ccc2O[C@@H]1CN(C)S(=O)(=O)c1cn(C)cn1 | inactive: 1.01
8 | O=C1C=C(O)C(=O)c2ccccc21 | inactive: 0.891
9 | O=C(C1CCC1)N1CCOCC1 | inactive: 1.04
10 | C=CC[C@@H](CC(=O)N(CCO)Cc1ccccc1)C(=O)N[C@H](COC(=O)[C@@H](CC=C)Cc1ccc(F)cc1)c1ccccc1 | inactive: 0.916
11 | Cc1cc(C)nc(SCC(=O)NN)n1 | inactive: 0.997
12 | COCC#Cc1ccc2c(c1)O[C@H](CN(C)S(=O)(=O)c1cccc(OC)c1)[C@@H](C)CN([C@H](C)CO)S2(=O)=O | inactive: 1.02
13 | COc1ccc(CNC(=O)C[C@@H]2C[C@H]3c4cc(NS(=O)(=O)c5ccc(F)cc5)ccc4O[C@H]3[C@@H](CO)O2)cc1 | inactive: 0.99
14 | CN1CC(=O)NC1=O | inactive: 1
15 | Cc1ccc(S(=O)(=O)N(C)C[C@@H]2Oc3ccc(NC(=O)Nc4cccc5ccccc45)cc3CC(=O)N([C@@H](C)CO)C[C@H]2C)cc1 | inactive: 1.04
16 | C[C@H](CO)N1C[C@H](C)[C@H](CN(C)C(=O)CN2CCOCC2)Oc2cc(C#Cc3cccc(F)c3)ccc2S1(=O)=O | inactive: 0.913
17 | CCS(=O)(=O)Nc1ccc2c(c1)C(=O)N(C)[C@H]1CC[C@H](CC(=O)NCc3ccccc3F)O[C@H]1CO2 | inactive: 0.986
18 | C[C@H](CO)N1C[C@H](C)[C@@H](CN(C)C(=O)Nc2ccc3c(c2)OCO3)Oc2c(NS(C)(=O)=O)cccc2C1=O | inactive: 0.981
19 | COCC(=O)Nc1ccc2c(c1)C(=O)N(C)[C@H]1CC[C@H](CC(=O)N3CCc4ccccc4C3)O[C@@H]1CO2 | inactive: 1.01
20 | COc1ccc(S(=O)(=O)N(C)C[C@@H]2Oc3ccc(NS(=O)(=O)c4c(C)noc4C)cc3CC(=O)N([C@H](C)CO)C[C@H]2C)cc1 | inactive: 1.01
21 | COc1ccc(CN(C)C[C@@H]2OCCCC[C@H](C)Oc3ccc(NS(=O)(=O)c4ccc(C)cc4)cc3C(=O)N([C@@H](C)CO)C[C@@H]2C)cc1 | inactive: 0.979
22 | C[C@@H]1CN([C@@H](C)CO)C(=O)c2c(c3ccccc3n2C)-c2ccccc2CO[C@@H]1CN(C)C(=O)Nc1cccc(Cl)c1Cl | inactive: 1.02
23 | Cc1ccc(S(=O)(=O)N[C@@H](Cc2ccccc2)C(=O)NCCCn2cc(-c3cccc(/C=C/C(=O)NO)c3)nn2)cc1 | inactive: 1.01

Row | Structure (SMILES) | relative growth
24 | COc1ccccc1C#Cc1cnc2c(c1)C(=O)N([C@@H](C)CO)C[C@@H](C)[C@@H](CN(C)S(=O)(=O)c1cn(C)cn1)O2 | inactive: 1.01
25 | CC(=O)NCCCS(=O)(=O)O | inactive: 0.983
26 | Cc1ccc(-c2ccc3c(c2)O[C@@H](CN(C)C(=O)CN(C)C)[C@H](C)CN([C@@H](C)CO)S3(=O)=O)cc1 | inactive: 1.01
27 | C[C@@H]1CN([C@H](C)CO)C(=O)Cc2cc(NS(=O)(=O)c3ccc(F)cc3)ccc2O[C@H]1CN(C)Cc1ccc(-c2ccccc2)cc1 | inactive: 0.982
28 | COc1ccc(NC(=O)Nc2ccc3c(c2)C(=O)N([C@H](C)CO)C[C@H](C)[C@@H](CN(C)C(=O)Nc2ccc(C(F)(F)F)cc2)O3)cc1 | inactive: 1
29 | CC(C)C[C@@H](NC(=O)CCN)C(=O)O | inactive: 0.982
30 | Cc1noc(C)c1NC(=O)Nc1ccc2c(c1)C(=O)N([C@@H](C)CO)C[C@H](C)[C@H](CN(C)Cc1ccccc1)OCCCC[C@@H](C)O2 | inactive: 0.996
31 | C[C@H]1CN([C@@H](C)CO)C(=O)c2cc(NC(=O)Cc3ccccc3)ccc2O[C@H]1CN(C)Cc1ccc(-c2ccccc2)cc1 | inactive: 0.967
32 | C[C@H]1CN([C@@H](C)CO)C(=O)c2cc(NS(=O)(=O)c3cn(C)cn3)ccc2O[C@H]1CN(C)Cc1ccc2c(c1)OCO2 | inactive: 1.01
33 | CN(C)CCOC(c1ccccc1)c1ccccc1.Cl | inactive: 1.12
34 | C[C@H]1CN([C@@H](C)CO)C(=O)c2cc(NC(=O)c3ccncc3)ccc2O[C@H]1CN(C)Cc1ccc2c(c1)OCO2 | inactive: 0.986
35 | C[C@@H]1CCCCO[C@H](CN(C)C(=O)Nc2cccc3ccccc23)[C@@H](C)CN([C@H](C)CO)C(=O)c2cc(NS(=O)(=O)c3ccc(F)cc3)ccc2O1 | inactive: 1.03
36 | C[C@@H]1CCCCO[C@H](CN(C)S(C)(=O)=O)[C@@H](C)CN([C@H](C)CO)C(=O)c2cc(NS(=O)(=O)c3ccccc3)ccc2O1 | inactive: 0.99
37 | C[C@H]1CN([C@@H](C)CO)C(=O)c2cc(NC(=O)CCN3CCOCC3)ccc2O[C@@H]1CN(C)C(=O)NC1CCCCC1 | inactive: 0.985
38 | C[C@@H]1CN([C@H](C)CO)C(=O)Cc2cc(NC(=O)C3CCCCC3)ccc2O[C@@H]1CN(C)Cc1ccc(Cl)c(Cl)c1 | inactive: 0.993
39 | Fc1cccc2c(Cl)ccnc12 | inactive: 0.976
40 | CNC[C@H]1COCCO1 | inactive: 1.04
41 | CCOC(=O)[C@@H]1CCCCN1C(=O)C(=O)OC | inactive: 1
42 | C[C@H]1CN([C@@H](C)CO)C(=O)Cc2cc(NC(=O)CCC(F)(F)F)ccc2O[C@H]1CN(C)C(=O)Nc1ccc(C(F)(F)F)cc1 | inactive: 0.995
43 | Cn1c(=O)c(=O)n(C)c2cc(S(=O)(=O)N3CCOCC3)ccc21 | inactive: 0.971
44 | C[C@H]1CN([C@@H](C)CO)S(=O)(=O)c2ccc(C#Cc3cccnc3)cc2O[C@H]1CN(C)C(=O)CN(C)C | inactive: 0.992
45 | Cc1ccc(S(=O)(=O)N(C)C[C@@H]2Oc3c(NS(C)(=O)=O)cccc3C(=O)N([C@H](C)CO)C[C@H]2C)cc1 | inactive: 0.957
46 | Cc1noc(C)c1NC(=O)Nc1ccc2c(c1)C(=O)N([C@H](C)CO)C[C@H](C)[C@@H](CN(C)S(C)(=O)=O)O2 | inactive: 0.971

Row | Structure (SMILES) | relative growth
47 | C[C@@H]1CN([C@@H](C)CO)C(=O)CCCn2nncc2CO[C@@H]1CN(C)C(=O)Nc1ccc(C(F)(F)F)cc1 | inactive: 0.975
48 | CCOC(=O)/C(C)=N/NC(C)=O | inactive: 1.01
49 | O=C(C[C@@H]1C=C[C@@H](NC(=O)c2cccnc2)[C@@H](CO)O1)NCCN1CCCCC1 | inactive: 1.01
50 | C[C@H](CO)N1C[C@H](C)[C@@H](CN(C)C(=O)Nc2ccc3c(c2)OCO3)OCCCC[C@H](C)Oc2ccc(NC(=O)NC3CCCCC3)cc2C1=O | inactive: 1.02
51 | CN(C)CC#Cc1ccc([C@@H]2[C@@H](CO)N3C(=O)CN(C(=O)CN(C)C)C[C@H]23)cc1 | inactive: 1.01
52 | Cc1noc(C)c1NC(=O)Nc1ccc2c(c1)C(=O)N([C@H](C)CO)C[C@@H](C)[C@H](CN(C)C(=O)c1ccccc1)OCCCC[C@H](C)O2 | inactive: 0.998
53 | COc1ccc(NC(=O)Nc2ccc3c(c2)[C@@H]2C[C@H](CC(=O)NCc4ccccn4)O[C@H](CO)[C@@H]2O3)cc1 | inactive: 1.02
54 | CC(=O)C1(O)CCC2C3C=C(Cl)C4=CC(=O)C5CC5C4(C)C3CCC21C (configuration not stated) | inactive: 1.15
55 | COCC(=O)N[C@@H]1C=C[C@H](CC(=O)N2CCCCC2)O[C@H]1CO | inactive: 0.891
56 | Cc1ccc(S(=O)(=O)Nc2ccc3c(c2)C(=O)N([C@H](C)CO)C[C@@H](C)[C@@H](CN(C)Cc2ccc(Cl)c(Cl)c2)OCCCC[C@H](C)O3)cc1 | inactive: 1
57 | Cc1noc(C)c1S(=O)(=O)N(C)C[C@H]1OCCCC[C@@H](C)Oc2ccc(NC(=O)Nc3ccccc3)cc2C(=O)N([C@H](C)CO)C[C@@H]1C | inactive: 1
58 | C[C@H]1CN([C@@H](C)CO)C(=O)Cc2cc(NC(=O)Nc3cccc(C(F)(F)F)c3)ccc2O[C@H]1CN(C)S(=O)(=O)c1ccc(Oc2ccccc2)cc1 | inactive: 1.03
59 | c1ccc2c(c1)ccc1cc3c(ccc4ccccc43)cc12 | inactive: 1.02
60 | C[C@@H]1CCCCO[C@H](CN(C)C(=O)NC2CCCCC2)[C@@H](C)CN([C@H](C)CO)C(=O)c2cc(NC(=O)c3ccncc3)ccc2O1 | inactive: 1.01
61 | COc1ccccc1S(=O)(=O)N[C@H]1CC[C@@H](CCNC(=O)C2CCOCC2)O[C@H]1CO | inactive: 0.999
62 | CC(C)NC(=O)Nc1cccc2c1O[C@H](CN(C)Cc1ccc(Oc3ccccc3)cc1)[C@H](C)CN([C@H](C)CO)C2=O | inactive: 0.993
63 | Cc1cc(C(=O)Nc2cccc3c2O[C@@H](CN(C)Cc2ccncc2)[C@@H](C)CN([C@@H](C)CO)C3=O)n(C)n1 | inactive: 1.01
64 | Cc1cc(=O)nc(C)[nH]1 | inactive: 1
65 | COc1ccc2c3c([nH]c2c1)[C@@H](CO)N(C[C@]13CCN(CC1)CC1CCCCC1)C(=O)Nc1c(noc1C)C | inactive: 0.993
66 | Cn1cnc(S(=O)(=O)N[C@@H]2C=C[C@H](CC(=O)NCC3CC3)O[C@H]2CO)c1 | inactive: 0.996
67 | COc1cccc(NC(=O)N[C@@H]2CC[C@H](CC(=O)N3CCOCC3)O[C@H]2CO)c1 | inactive: 0.972
